Measured values: patent US20240173317A1, “METHODS FOR TREATING PROGRESSIVE FAMILIAL INTRAHEPATIC CHOLESTASIS” (MIRUM PHARMACEUTICALS, INC., priority 2022, published 2024)

What was measured:
[1] = test system: subjects with PFIC; assay: ItchRO(Obs) pruritus severity, MARCH-PFIC Phase 3 study; type: in vivo, human; details: BSEP deficiency group, all study participants, FIG. 10A-C
Procedure: The primary analysis was conducted in the intent-to-treat (ITT) population of subjects with documented biallelic mutations in ABCB11 (PFIC 2), based on standard-of-care genotyping (primary cohort criteria). Subjects with a predicted complete absence of bile salt excretion pump (BSEP) function based on the type of ABCB11 mutation (PFIC 2), as determined by a standard-of-care genotype, were excluded from the primary cohort and could enroll only in the supplemental cohort. Subjects with other PFIC subtypes (e.g., PFIC 1/3/4/5/6, or new PFIC mutation variants) or postsurgical subjects (e.g., after internal or external biliary diversion surgery or subjects with reversal of biliary diversion surgery) were enrolled in a separate supplemental cohort and evaluated as part of secondary and exploratory analyses. […]
Efficacy. Severity of pruritus was assessed using the Itch caregiver/patient reported outcome measure (ItchRO™) administered as a twice daily electronic diary. […] Pruritus was assessed and recorded twice daily, via ItchRO, beginning with the day after the screening visit and every day throughout the duration of the study. The severity of pruritus was measured by the completion of the first question in the ItchRO(Obs) (how severe were your child's itch-related symptoms) or ItchRO(Pt) (how itchy did you feel). […]

[2] = test system: subjects with PFIC; assay: Clinician Scratch Scale (CSS) score, MARCH-PFIC Phase 3 study; type: in vivo, human; details: BSEP deficiency group and PFIC group; FIG. 18A-B
From the text: Clinician Scratch Scale (CSS). The CSS provides an assessment of itch severity. The clinician's assessment of the subject's pruritus focused on scratching and visible damage to the skin as a result of scratching as observed by the physician. The CSS uses a 5-point scale, in which 0 designates no evidence of scratching and 4 designates cutaneous mutilation with bleeding, hemorrhage and scarring. A clinician's assessment of pruritus made by the principal investigator or sub-investigator using the CSS was recorded at screening, baseline, and at additional study visits as outline in Table 2.
For the PFIC Cohort, PFIC Type is included in the model as an additional covariate.
Clinician Scratch Scale (CSS) was scored on a 0-4 scale, where 0=none and 4=cutaneous mutilations, haemorrage, and scarring (worst scratching).

## CCCCC1(CCCC)CS(=O)(=O)c2ccc(N(C)C)cc2[C@@H](c2ccc(OCc3ccc(C[N+]45CCN(CC4)CC5)cc3)cc2)[C@H]1O [maralixibat, 1-(4-((4-((4R,5R)-3,3-dibutyl-7-(dimethylamino)-4-hydroxy-1,1-dioxido-2,3,4,5-tetrahydrobenzo[b]thiepin-5-yl)phenoxy)methyl)benzyl)-1,4-diazabicyclo[2.2.2]octan-1-ium]
[1]
  change from baseline in weekly morning average ItchRO[Obs] score over time: significantly lower at each time point from Week 2 to Week 26
[2]
  CSS score over time: significantly lower at each time point from Week 2 to Week 26
